To fix the notation:
B1: LINE1-mini (parent)
chain: GGCAGAGCUCAACACAGCGUGGCAAAGUGGCUGUGGCUAGACUGCC

The source gives no read counts; variants with many changes may rest on few reads.

The variants in this series derive from B1. Description: self-cleavage, relative activity (ratio to wild type); higher = more cleavage; in vitro, sequencing; the parent is a self-cleaving ribozyme.
In the case of A14G C31U U34C A39U G44A, the self-cleavage stood at 0.21.
As for C15A A26C U28C C42U, the figure is 0.01; as for C13U A14C G17A A25U G29U, 0.02; as for A14C C18A G19U, 0.03.
As for C13U G17A C18U U20A G40A, the figure is 0.01; as for C13U U20A G33C, 0.05; as for C15A A24U C42G C45U, 0.08.
Regarding A14G G27C C31U U34C, the self-cleavage amounted to 0.4.
As for C15A A16U C23G G27A C45G, the figure is 0.04.
For the variant C13U C18U U34G C46A, the self-cleavage came to 0.01.
On to A14U C23A A26U U28A, for which the self-cleavage turned out to be 0.49.
As for A14G G27U G30A U38A A41G, the self-cleavage is 0.
In the case of A14U C18A U20G C23U C37U, the self-cleavage amounted to 0.05.
On to A14G G19C G29U, for which the self-cleavage amounted to 0.04.
As for C13U A14C G21U, the figure is 0.13; as for A14U G29A U43C, 0.17; as for A14C C18A C45U, 0.03.
Consider C13U C18U A26U C46U, for which the self-cleavage turned out to be 0.03.
As for A14U G40U C46A, the figure is 0; as for A14U C18G C31G G35A, 0.02; as for C13U A14U G19U U43A, 0.03.
As to A14G G30U C37G, the self-cleavage is 0.22.
For the variant C13G G36C C37U C45A, the self-cleavage amounted to 0.15.
In the case of A14U U20A G36U it was 0.43.
As to A14G G19C C23U, the self-cleavage stood at 0.14.
In the case of A14C C18G G40U C45A it was 0.02; in that of A14C U20A A26U G30C, 0.19; in that of A14C G27U A41G, 0.07.
As for A14U G17C U38G A39C, the self-cleavage was found to be 0.06.
As to C13U U20G G22A C31G, the self-cleavage is 0.04.
Take A14U C23U A26C: the self-cleavage stood at 1.4.
As for C13U C18U G29A G35C, the figure is 0.2; as for A14U U38G C42U, 0.03; as for C13U A25U U28C U32G G40A C45U, 0.02.
As for A14G U32G G36C, the figure is 0.02; as for C13U A25C G35U C42A, 0.03.
In the case of C15A C18A C23G U43A G44A C45U it was 0; in that of A14U A16G C42A, 0.06.
With A14U C18A G21C U43C, the self-cleavage was determined as 0.04.
In the case of A14U U28C A39U C45G it was 0.15; in that of A14G G19A U32A, 0.02; in that of A14G C15A A16U C18A G30A U34A, 0.14.
In the case of A14G U32A A41G it was 0.21.
In the case of A14C G27A C37G it was 0.04; in that of C13U C23U G27U G40U, 0.05; in that of C13U G36U A39C, 0.08.
In the case of A14U C18A C46U, the self-cleavage was 0.02.
In the case of C15A A16G G22U, the self-cleavage is 0.04.
As for A14G A16U G22A C42G, the self-cleavage was 0.01.
As to A14G A41G U43A G44U, the self-cleavage was 0.02.
For A14U G21C C23A G27A G29U G40U C45G C46A, the self-cleavage stood at 0.
As for C13G G36U U38C A41C, the figure is 0.1.
In the case of A14U G17A G27A, the self-cleavage is 0.07.
Regarding A14C C18U G30U, the self-cleavage came out at 0.01.
As for A14G U32A U34C, the self-cleavage was found to be 0.02.
In the case of C13U C23U C45U it was 0.26; in that of A14C C15A U43G C45U, 0.01; in that of C15A A25U G40C G44C, 0.
As for C13U G21U G33U, the figure is 0.01; as for C13U U32G G33C G40C, 0.03.
Consider C13U G17U G22U C23G C37U, for which the self-cleavage worked out at 0.12.
In the case of C13U U20G C23U A25G it was 0.01; in that of A14C U34C A41G C42G, 0.01; in that of A14C U43A G44U C45U, 0.07.
In the case of C13U A16G G27U A41U it was 0.07; in that of C13G U20C A25U, 0.09; in that of C13U C18A G29A, 0.02.
In the case of A14G G30C C42A it was 0.01; in that of A14C C18A G27A C46U, 0.01.
Take C13U C18A G40A A41U: the self-cleavage came to 0.01.
On to C13U C23U U32G, for which the self-cleavage is 0.12.
As for A14C G40A C42A, the figure is 0.1; as for A14C G30U U43C, 0.03; as for A14G G30C C42A U43C, 0.03.
A14U C15A G21U G33C: the self-cleavage worked out at 0.01.
In the case of A14G G22C A24C G33U U34C it was 0.03.
In the case of A14G G33A C46A it was 0.04; in that of A14C A26G G40U C45G, 0.03.
As for C13U G17A U28G A41U, the figure is 0.16; as for C13U G17C C23G U32G C45U, 0.01; as for A14U C18A G19A, 0.04.
For the variant A14U G27U G29C A39G C45G, the self-cleavage turned out to be 0.03.
As for A14U C15A A25G, the figure is 0.
Consider C13U G19U C23A G29C, for which the self-cleavage came out at 0.09.
In the case of C13U A24C G33U it was 0.07; in that of A14G U34G U43A, 0; in that of C13U C23G G35C, 0.08.
As for C13U G33A C45U, the figure is 0.09.
In the case of A14G A16C G27U C45A it was 0.02.
With A14U A26U G29U C37U G40U, the self-cleavage was determined as 0.11.
In the case of A14G C18A A25C it was 0.11; in that of C13U A16U G19U U20A A25U A26U, 0.06.
In the case of A14C G27U U34C G35A it was 0.02.
As to A14C G29A G40U, the self-cleavage worked out at 0.21.
Take A14C C18A C42A: the self-cleavage turned out to be 0.06.
As for C13G U43A C46G, the figure is 0.05; as for A14C U20A G27U C37A U38A, 0.01.
In the case of A14G G29U U38A it was 0.51; in that of C13U G30A G44A, 0.04.
As for A14G G17A A25U C45U, the figure is 0.03.
Take C13U A39U G44U C45U: the self-cleavage was 0.07.
For the variant A14G G21U G36U C46U, the self-cleavage came out at 0.07.
On to A14U A25G C31A U32C C45A, for which the self-cleavage was determined as 0.04.
In the case of A14C A16C G35C it was 0.05; in that of A14U G19C G33C, 0.05.
In the case of C15A A25U C45G, the self-cleavage turned out to be 0.
In the case of A14U C15G G22U U32C A39G it was 0.
As for A14C G17A U20A A24G G36A C37U, the figure is 0.08; as for A14C G22U G40U C42U, 0.02.
As for A14G G17U G19A A41U, the self-cleavage is 0.01.
On to A14U C15G U28A C31A, for which the self-cleavage came to 0.02.
In the case of A14U A26C G40C it was 0.05.
In the case of C15A A25G G36C U38G U43C C45G it was 0.01; in that of A14G G19A C23G A39G, 0.03.
For A14G G33C C37A G44A, the self-cleavage was 0.01.
In the case of A14G C18A G35C it was 0.01; in that of A14G G17C G30A G36U G40U, 0.14; in that of A14U A25G U32G U43A, 0.09.
As for A14G C18A C23A U32G G36U, the figure is 0.22; as for A14C C23U C46U, 0.09; as for C13U C31A U43C, 0.03.
In the case of C15A A16G G35U G40C A41U C42U U43C it was 0.03; in that of A14G C31A G36A A39G, 0.02.
Take C13U G17U G27C: the self-cleavage was found to be 0.07.
As for A14U C23G G27C U34A A41G, the figure is 0.1; as for A14G G17A G22A G30C U34C U38A C42G C45A, 0.02.
In the case of A14C C37U C42U G44C C45A it was 0.06; in that of A14U G21U C37A G40C, 0.04; in that of A14C A16U G33C G35U C46A, 0.02.
Take A14U A26U U34G: the self-cleavage was 0.7.
In the case of A14C A16C G29U it was 0.13; in that of A14C G19A A41C, 0.02; in that of A14U G21C U38A C42U, 0.06.
For A14U G35A C37U, the self-cleavage amounted to 0.01.
In the case of A14G C15U C31A it was 0.01; in that of A14G U20G G21U G35A, 0.02.
With C13U G30C G35C, the self-cleavage was determined as 0.14.
As to C13U A24U G30U, the self-cleavage amounted to 0.94.
In the case of C13U C31G A39G it was 0.04; in that of A14G C42U C46G, 0.02.
For the variant C15A A26G U38C, the self-cleavage came to 0.04.
In the case of C13U A14C U38G it was 0.02; in that of A14G C37G C45A, 0; in that of A14U C15A C37A, 0.01.
As for A14U U38G G40C, the self-cleavage was 0.02.
Take A14G G22C G35C C42G: the self-cleavage was found to be 0.01.
A14C C18U A26C: the self-cleavage was 0.19.
In the case of C13U A39U C46A it was 0.02.
As for C13U C18G C23U A26C G35U, the figure is 0.06.
Turning to C13G U20A G22U C46A, the self-cleavage stood at 0.04.
In the case of C13U A16C G35U it was 0.19; in that of A14C C15A U28A C46A, 0.05.
In the case of C13U U38C C42G it was 0.01; in that of A14G G29A U38G, 0.02.
For the variant A14G G17U U20G G29C A41U U43C, the self-cleavage was 0.01.
As for A14U C18A G21A U34C, the figure is 0.07.
In the case of C13U U20C U38C it was 0.04; in that of C13U U20A G30C G44C, 0.06; in that of C13U C37U G40A, 0.03.
On to C13U G19U G21A G30U G33C G40U, for which the self-cleavage was determined as 0.03.
In the case of C15A A24G G33C G35C G40C it was 0; in that of A14U C31G G33C A39C U43A C46U, 0.03.
In the case of C13U C15A G33A C37A it was 0.24; in that of C13U A26C G29C, 0.08.
For A14U A26U G40A, the self-cleavage came out at 0.01.
As to C13U G22U C23A G29U U32G, the self-cleavage was determined as 0.41.
In the case of A14U C31U U38G it was 0.02.

The values are drawn from the RNAGym collection of RNA variant scans (doi:10.7554/elife.90254).
